Molecular target: T1, DnaJC7 (full-length, wild type, recombinant) (UniProt Q99615 1-494)
T1 construct: DnaJC7, class-C J-domain protein with TPR1, TPR2a, TPR2b and a C-terminal J domain; called full-length DnaJC7; Plasmid was a gift (A. Joachimiak); also called DnaJC7WT; WT DnaJC7
T1 sequence (looked up): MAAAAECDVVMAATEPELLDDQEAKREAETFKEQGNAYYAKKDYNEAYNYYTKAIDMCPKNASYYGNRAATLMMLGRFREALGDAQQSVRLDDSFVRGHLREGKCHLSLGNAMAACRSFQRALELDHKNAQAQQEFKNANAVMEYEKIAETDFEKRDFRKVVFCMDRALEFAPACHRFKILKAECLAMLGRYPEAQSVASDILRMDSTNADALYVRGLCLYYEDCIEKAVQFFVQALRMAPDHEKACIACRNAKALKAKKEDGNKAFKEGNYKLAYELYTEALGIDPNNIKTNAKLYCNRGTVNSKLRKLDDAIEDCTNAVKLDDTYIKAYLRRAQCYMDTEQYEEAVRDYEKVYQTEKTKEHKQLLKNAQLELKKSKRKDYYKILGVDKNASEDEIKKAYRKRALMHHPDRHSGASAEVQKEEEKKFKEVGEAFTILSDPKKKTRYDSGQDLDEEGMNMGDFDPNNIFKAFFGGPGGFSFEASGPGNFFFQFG
Assay: MST; Cy5-labelled wild-type or mutant tau/tauRD titrated with a serial two-fold dilution of DnaJC7 or single DnaJC7 domains; Monolith NT.115; technical triplicates; fit in PALMIST with a 1:1 binding model
Settings: both partners purified

B1: tau N-terminal fragment (N-term, […]) (domain or fragment)
chain: not shown
modifications: Cy5 (Cyanine5 NHS ester) label in MST
notes: N-terminus of tau, […] (of full-length 2N4R tau); also called N-terminus
Kd: 17 ± 4 µM
